Laboratory results taken from the supplement of paper PMC3334620.
Whole data set: some 33,000 sequences, median “E-score (-0.5 to 0.5)” near -0.035, cut for the highest 2% near 0.35. Some of the results follow.

Target: T1, Pdr3 (UniProt P33200)
T1 sequence: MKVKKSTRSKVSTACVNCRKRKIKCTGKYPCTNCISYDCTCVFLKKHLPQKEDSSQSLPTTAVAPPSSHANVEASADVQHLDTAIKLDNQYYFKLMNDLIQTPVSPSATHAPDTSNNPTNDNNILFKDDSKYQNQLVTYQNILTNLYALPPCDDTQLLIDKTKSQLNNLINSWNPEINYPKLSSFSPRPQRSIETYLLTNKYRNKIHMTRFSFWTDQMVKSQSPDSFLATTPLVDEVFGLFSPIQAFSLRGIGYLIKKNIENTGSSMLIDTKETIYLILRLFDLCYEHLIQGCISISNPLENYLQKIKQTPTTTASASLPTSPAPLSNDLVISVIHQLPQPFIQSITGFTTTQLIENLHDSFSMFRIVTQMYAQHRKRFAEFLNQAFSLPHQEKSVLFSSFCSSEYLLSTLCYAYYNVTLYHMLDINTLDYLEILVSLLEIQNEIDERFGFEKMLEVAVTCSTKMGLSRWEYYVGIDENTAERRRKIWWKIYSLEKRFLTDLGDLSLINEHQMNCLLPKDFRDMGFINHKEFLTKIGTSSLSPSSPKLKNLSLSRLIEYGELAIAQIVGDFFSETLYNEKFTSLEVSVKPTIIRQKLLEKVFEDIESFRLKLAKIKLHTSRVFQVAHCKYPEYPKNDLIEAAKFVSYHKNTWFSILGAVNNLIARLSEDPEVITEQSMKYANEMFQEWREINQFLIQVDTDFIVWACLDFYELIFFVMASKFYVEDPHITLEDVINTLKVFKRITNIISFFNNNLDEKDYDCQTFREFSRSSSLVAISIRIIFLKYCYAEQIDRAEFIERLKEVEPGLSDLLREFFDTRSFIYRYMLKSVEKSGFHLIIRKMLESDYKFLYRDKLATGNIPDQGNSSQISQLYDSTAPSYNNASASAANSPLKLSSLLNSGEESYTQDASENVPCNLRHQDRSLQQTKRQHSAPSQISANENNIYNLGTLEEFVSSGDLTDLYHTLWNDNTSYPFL
Assay: PBM E-score (8-mer binding enrichment) (E-score (-0.5 to 0.5)); higher = stronger / more preferred TF binding; most listed sequences are background and not binding sites
Conditions: protein concentration: 200 nM; construct: GST-full length
In short: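 GST-tagged yeast TFs (full-length or DNA-binding domain) were made by PURExpress in vitro transcription/translation and applied at about 100-200 nM to universal all-10-mer Agilent arrays. The arrays were made double-stranded by primer extension, on fresh or once-stripped slides. Bound protein was detected with fluorescent anti-GST, and scans were normalised with masliner. Each ungapped eight-base word, pooled with its reverse complement, received an E-score (modified Wilcoxon-Mann-Whitney statistic) from the Universal PBM Analysis Suite.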

Sequence | PBM E-score
ACTTCACA | -0.222
CCCAACGC | -0.134
CTGGGAAC | 0.151
ACTTTGGA | -0.132
GGTTTAAC | -0.097
GCATCCAC | 0.0386
ACTCTCTC | 0.0728
ATGCGTTG | -0.157
ACTGTTTG | -0.123
AGTATACA | -0.12
GACTTAAA | -0.218
ACGCATCT | 0.00401
GCATGTCC | -0.00854
CAGTCGCA | -0.192
TGTAGACA | -0.164
CATGATAA | -0.106
CGGCTCAG | 0.253
CTGTTCTA | -0.0869
ACGCATAG | -0.0745
CTCGGAAC | 0.474
ATCGTGTA | -0.172
CTGCCACC | -0.158
ACAAGCGC | 0.163
ACCGAATC | 0.0805
TTTCGAAA | -0.184

Sequence | PBM E-score
AGGTACTG | -0.116
GGGACCAC | 0.122
ATTAGACA | -0.209
ACGGAGAT | 0.291
AAATTAAC | 0.185
AGCCGATG | 0.0484
CACACCTA | -0.0215
CGGGGCCA | 0.306
ACTGGCAT | -0.214
CAATTATG | -0.00118
ACGCATAT | -0.122
CCTCGTTC | -0.0772
TATTACGA | 0.0728
ATATTGAT | 0.162
ATCAAACA | -0.0121
AATCCCAA | -0.151
CATCCTCG | 0.169
AGCGTTCC | 0.222
GATTAATC | 0.276
CTATTGAG | -0.128
CTGGTCCC | -0.0336
CCAACGAG | -0.16
AACTATTA | -0.0105
ACTTAATG | -0.0064
ATATTATG | 0.189

Sequence | PBM E-score
GTCGCTAA | 0.019
ATATGCAA | 0.0516
AGGGCTCG | -0.0445
CCTCACCA | -0.111
AAGAAATG | 0.0219
ACCGAGGG | -0.125
AAGTGGTA | -0.173
ATTTTTGA | -0.0616
CTACTCTA | -0.0917
CGATTAAA | 0.184
GATCTGAC | -0.0022
ATTTGGTA | 0.0828
CCCGGGTC | 0.426
AGCGCGGC | 0.107
CGGGTAAA | 0.243
AGTAGGCG | 0.0216
CTATAGTA | 0.112
CAACTCGA | -0.0562
ACGACTGA | -0.236
CGCCATGA | -0.00304
TACTGTAA | -0.0308
ATTGTCTC | 0.0139
TGAAACCA | 0.117
ATCCTTGA | 0.0292
CGAGATGC | 0.00614

Sequence | PBM E-score
GGGACCCA | 0.0952
ACCCTCAA | -0.158
AATTTCCG | 0.442
ATATCAGG | -0.177
ATTTCAAA | -0.0978
CACGCGCA | -0.0668
AATAGCTG | -0.0173
GGTGGGAA | 0.0317
CCTCCGCC | 0.169
GAATGCGA | 0.0648
AGTAGCTA | 0.0784
CTATCCAG | -0.111
AGCATACA | -0.127
GTTTCGGA | 0.276
GGTAGCAC | -0.0627
AGGCCGTG | 0.101
AAGTAATT | 0.0148
ATTATTTC | 0.288
CCTCCCAG | -0.165
CACAACGC | 0.0223
AGCCTTAT | -0.0184
GGGATCAA | 0.0879
GACGGACA | 0.335
CGGTGGAG | 0.0653
CTCAAGCC | 0.00839

Sequence | PBM E-score
GAGAGAGC | -0.0923
CGGCCGAA | 0.333
AACAGGTT | -0.115
AGTTCATG | 0.199
CAATCAGC | -0.11
ATGACGTC | 0.13
AATTGATG | 0.0138
CCCAGCGC | 0.0116
AATTGCAA | 0.115
CATGCGCC | 0.0785
AGACATGG | -0.0476
GTTTGTGA | -0.0801
AGACGTGA | -0.0745
CGTCATGC | -0.0236
ATCAATGG | -0.0283
AACTGAGC | 0.00305
CCGATAGG | 0.161
AAGGTCTC | -0.199
TTCGCAAA | 0.118
AACCCCTG | -0.106
GCAACGAA | 0.0611
ATCTAAAC | -0.113
AGTTGATC | 0.0242
ACTGCCAA | 0.0154
AGGAGAAT | -0.00643

Sequence | PBM E-score
AGAATATC | 0.048
ACGAACGA | -0.085
CTACATTA | -0.155
CACAAACA | -0.051
AGAACACC | -0.0492
CCATTAGA | -0.252
ATCTAATG | -0.0667
ACACAAGA | -0.0489
GAGATTCC | 0.303
AATCTTCC | 0.247
ATGTTAGG | -0.142
AGAAGTCT | -0.164
CCCGTTCC | 0.347
AAACTTAA | -0.00554
AGTTAGGG | -0.0903
ATTACGAC | 0.0333
GAGTCCCA | 0.0653
AGGGTTGA | -0.193
AAATCCTT | -0.0854
CACCGGTC | -0.12
CAGTAGGA | -0.217
TACCGGCA | 0.214
ATAACAGA | 0.0279
ACCGACTG | 0.0515
AACAAAAC | 0.0622

Sequence | PBM E-score
CACACGCG | 0.158
CCGGACGA | 0.36
CCTTCAGA | -0.244
AGACCGGG | 0.152
CTCGAATC | -0.242
CCCGGGCA | 0.375
AGCGCTAG | -0.0879
CTACCTCA | 0.0597
CATGTCCG | 0.282
ACGCAAGG | -0.0997
CTGGTTCA | -0.107
AAGCCCTT | -0.265
CATACCCA | -0.0695
AGGGGACG | -0.0247
GCCGTGGA | 0.258
CGACACTA | 0.11
AGAACAAC | -0.0827
CATTTATA | -0.105
ACTCTTAC | -0.0821
AAGTGTAG | -0.188
CGGTCCGA | 0.378
TAGAAAGA | -0.248
